Assay results published in publication PMC12756210.
Results are given in words; binding and its absence hold for the method and conditions named. Binding seen in cells or lysates may run through a third protein. Sequences can lack the tags named with a protein.

Protein sequences, listed by entry. Tags and fused reporters are not part of them.
UniProt P05804: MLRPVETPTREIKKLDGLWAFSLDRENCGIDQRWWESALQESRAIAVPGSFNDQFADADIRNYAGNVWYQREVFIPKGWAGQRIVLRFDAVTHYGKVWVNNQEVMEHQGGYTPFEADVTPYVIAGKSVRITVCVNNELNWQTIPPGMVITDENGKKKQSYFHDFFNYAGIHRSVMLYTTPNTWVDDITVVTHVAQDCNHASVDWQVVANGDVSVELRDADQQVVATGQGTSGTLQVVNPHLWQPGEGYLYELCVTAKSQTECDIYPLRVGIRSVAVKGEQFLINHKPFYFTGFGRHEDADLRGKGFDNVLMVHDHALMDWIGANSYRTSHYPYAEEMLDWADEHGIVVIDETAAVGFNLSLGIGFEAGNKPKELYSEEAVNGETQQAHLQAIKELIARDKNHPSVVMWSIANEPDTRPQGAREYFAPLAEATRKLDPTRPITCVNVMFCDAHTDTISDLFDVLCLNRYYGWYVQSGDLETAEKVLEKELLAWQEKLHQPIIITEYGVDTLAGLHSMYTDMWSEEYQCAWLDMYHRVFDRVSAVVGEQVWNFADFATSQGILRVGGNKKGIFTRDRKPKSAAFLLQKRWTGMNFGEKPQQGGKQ

Key:
ZIP2-GFP (Arabidopsis) = molecular target: T1, ZIP2-GFP (Arabidopsis) (UniProt Q9LTH9); assay: co-IP; total protein of 10-day-old transgenic Arabidopsis seedlings in IP buffer (50 mM Tris HCl pH 7.6, 150 mM NaCl, 0.5% NP-40); anti-GFP agarose beads; blots with anti-FLAG and anti-GFP antibodies
T1 sequence: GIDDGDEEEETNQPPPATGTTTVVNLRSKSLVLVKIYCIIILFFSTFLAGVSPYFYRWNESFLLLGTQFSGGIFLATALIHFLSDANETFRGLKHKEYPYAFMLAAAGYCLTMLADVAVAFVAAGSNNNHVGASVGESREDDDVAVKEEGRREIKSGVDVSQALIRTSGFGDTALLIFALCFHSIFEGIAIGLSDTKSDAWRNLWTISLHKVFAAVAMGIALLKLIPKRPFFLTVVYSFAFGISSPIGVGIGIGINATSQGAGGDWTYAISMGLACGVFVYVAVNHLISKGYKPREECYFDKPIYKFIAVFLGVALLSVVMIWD

ZIP2-cLUC (Arabidopsis) = molecular target: T2, ZIP2-cLUC (Arabidopsis) (UniProt Q9LTH9); assay: split reporter; split luciferase complementation imaging (LCI): nLUC and cLUC fusions co-infiltrated by Agrobacterium GV3101 into N. benthamiana leaves, expressed 48 h, signal read by CCD
T2 sequence: T1 sequence

ZIP2-cYFP (Arabidopsis) = molecular target: T3, ZIP2-cYFP (Arabidopsis) (UniProt Q9LTH9); assay: split reporter; BiFC: nYFP and cYFP fusions transiently co-expressed in N. benthamiana leaves with CBL1-OFP as plasma membrane marker; YFP fluorescence read 48 h after transfection
T3 sequence: T1 sequence

In the case of GUS-FLAG (from UniProt P05804 1-603), the binding (ZIP2-GFP (Arabidopsis)) is reported as “no binding”.

In the case of GUS-nLUC (from UniProt P05804 1-603), the binding (ZIP2-cLUC (Arabidopsis)) is reported as “no binding”.

In the case of GUS-nYFP (from UniProt P05804 1-603), the binding (ZIP2-cYFP (Arabidopsis)) is reported as “no binding”.
